Measurements from the supplement of paper PMC8183993.
Several values for one entry are separate records, joined by “and”; a condition that tells them apart may be missing. Equal values may be shown once. Where a name gives a salt, the structure may show the parent alone. In all, about 3,100 compounds were measured (“mean cytoplasmic OPP incorporation (global translation) relative to DMSO”: median about 100, lowest 2% from about 56 on). Some of the results follow.

What follows are compounds tested on U2OS (assay: mean cytoplasmic OPP incorporation (global translation) relative to DMSO (% of DMSO); higher = more protein synthesis). Settings: 10 µM; 24 h.
Protocol: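 Primary image-based screen in U2OS cells: compounds at 10 uM for 24 h, then a 1 h o-propargyl-puromycin (OPP) pulse, click labelling, and high-throughput microscopy. Mean cytoplasmic OPP intensity and nuclei count were normalised to DMSO wells within each plate (DMSO = 100) and averaged over triplicate plates.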

| SMILES | mean cytoplasmic OPP incorporation |
| --- | --- |
| OCc1ccc(O[C@@H]2O[C@H](CO)[C@@H](O)[C@H](O)[C@H]2O)cc1 [Gastrodin (Gastrodine)] | 95 |
| N#CC(c1ccnc(NCCc2cccnc2)n1)c1nc2ccccc2s1 (stereo not given) [JNK Inhibitor V] | 114 |
| CN(N=O)C(=O)N[C@@H](C=O)[C@@H](O)[C@H](O)[C@H](O)CO [Streptozocin] | 98 |
| CN(N=O)C(=O)N[C@@H](C=O)[C@@H](O)[C@H](O)[C@H](O)CO [Streptozotocin] | 105 |
| Cn1cc(C2=C(c3ccc(Cl)cc3Cl)C(=O)NC2=O)c2ccccc21 | 104 and 106 |
| Cc1ccc(C(=O)Nc2ccc(S(=O)(=O)O)c3cc(S(=O)(=O)O)cc(S(=O)(=O)O)c23)cc1NC(=O)c1cccc(NC(=O)Nc2cccc(C(=O)Nc3cc(C(=O)Nc4ccc(S(=O)(=O)O)c5cc(S(=O)(=O)O)cc(S(=O)(=O)O)c45)ccc3C)c2)c1 [Suramin hexasodium salt] | 95.8 |
| CCC(=O)[C@@]1(C)[C@H](C)C[C@H]2[C@@H]3CCC4=CC(=O)C=C[C@]4(C)[C@H]3[C@@H](O)C[C@@]21C [Rimexolone] | 102 |
| CCc1cc(C(N)=S)ccn1 [Ethionamide] | 97.2 |
| CN(Cc1ccccc1)C(=O)[C@H](Cc1ccc2ccccc2c1)NC(=O)[C@@H]1C[C@@H](O)CN1C(=O)c1cn(C)c2ccccc12 | 97.2 |
| Cc1cn([C@@H]2C[C@@H](O)[C@H](CO)O2)c(=O)[nH]c1=O [Telbivudine (Sebivo, Tyzeka)] | 99.3 |
| NC(=O)c1ncn([C@@H]2O[C@H](CO)[C@@H](O)[C@H]2O)c1O [Mizoribine (Bredinin)] | 102 |
| CN1CCN(C(c2ccccc2)c2ccc(Cl)cc2)CC1 (stereo not given) [Chlorcyclizine hydrochloride] | 101 |
| O=C(N/N=C/c1ccc([N+](=O)[O-])o1)c1ccc(O)cc1 [Nifuroxazide] | 98.6 |
| Cc1cccc(Nc2cc(Cl)nc(SCC(=O)O)n2)c1C | 97.9 and 107 |
| Cc1cc(NC(=O)c2cccc(NC(=O)/C=C/CN(C)C)c2)ccc1Nc1nccc(-c2cccnc2)n1 | 96.1 |
| C[C@@H]1CN(c2c(F)c(N)c3c(=O)c(C(=O)O)cn(C4CC4)c3c2F)C[C@H](C)N1 [Sparfloxacin] | 109 |
| CCOC(=O)c1c(C)[nH]c2ccc3c(c12)CN1CCc2cc(OC)ccc2C1O3 (stereo not given) | 91.5 |
| CC[C@@H]1Cn2c(c3nc(-c4ccccc4)nc-3n(C)c2=O)N1 | 89.6 |
| CC[C@]12CCCN3CCc4c(n(c5ccccc45)C(=O)C1)[C@@H]32 [Eburnamonine (-)] | 85.8 |
| CCn1cc(C(=O)O)c(=O)c2cc(F)c(N3CCN(C)CC3)cc21 [Pefloxacine] | 97.9 |
